Patent US20180362631A1 (Eli Lilly, published 2018)

Target: T1, human CXCR2 (human, UniProt P25025 1-360)
T1 sequence (looked up): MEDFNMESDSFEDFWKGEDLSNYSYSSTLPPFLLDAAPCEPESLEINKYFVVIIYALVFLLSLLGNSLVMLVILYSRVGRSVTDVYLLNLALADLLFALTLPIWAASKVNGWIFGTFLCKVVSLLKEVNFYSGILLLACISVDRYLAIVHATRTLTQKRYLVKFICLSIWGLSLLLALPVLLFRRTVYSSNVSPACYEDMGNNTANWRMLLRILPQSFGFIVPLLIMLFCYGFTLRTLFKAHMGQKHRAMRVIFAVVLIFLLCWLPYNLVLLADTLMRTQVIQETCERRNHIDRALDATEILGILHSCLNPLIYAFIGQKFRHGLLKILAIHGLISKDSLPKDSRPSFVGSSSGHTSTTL
Assay: cell-based or functional assay

Row | Binder | EC50 (U937 FLIPR activity) [µg/mL]
1 | human CXCL8 point mutant A35P (ligand) not shown | 1.9
2 | human CXCL8 point mutant L49A (ligand) not shown | 5.6
